Laboratory results from PubChem BioAssay AID686978 (National Center for Advancing Translational Sciences (NCATS), 2013).
Screen size: about 420,000 compounds; about 64,000 (15%) were called active. Inconclusive means that the source gave no clear call. Such entries were picked first, then a sample of the others. The call rests on the fitted dose curve; in most records, active means well fitted inhibition curve with a large enough effect; inconclusive means small, poorly fitted or top-dose-only effect; inactive means flat fitted curve, though single readings scatter. No potency is given beside an inconclusive call; the fits are too rough.

Assay: qHTS for Inhibitors of human tyrosyl-DNA phosphodiesterase 1 (TDP1): qHTS in cells in absence of CPT; further: nearly all actives have a fitted effect of over 55% in size
Conditions: DT40 Tdp1-/- hTDP1 cells, no CPT, ATP luminescence, 48 h
In short: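 No-CPT arm: Tdp1-/-;hTDP1 DT40 cells (400/well) plus compounds, incubated ≥48 hr at 37 °C. Readout CellTiter-Glo luminescence.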

[1] = activity change, negative = growth inhibition: at 46.2 µM (top of the series) unless noted
On the % scale 0 is the no-effect control and ±100 the full control effect; potency means the concentration at half of the fitted maximal effect; tags describe the fitted curve by direction and shape.

**Q.** Which Potency [1] does the source give for CCOC(=O)c1c(C(C)(C)C)oc2ccc(OCC#N)cc12 here?
**A.** inconclusive [inhibitor, partial curve]

**Q.** With CCSc1nsc(NC(=O)Nc2cccc(C(C)=O)c2)n1 as the compound, how does the Potency [1] read?
**A.** inconclusive [inhibitor, single point]

**Q.** For COc1ccc(Nc2c3c(nc4ccccc24)CCCC3)cc1OC, which Potency [1] is on record?
**A.** inconclusive [inhibitor, single point]

**Q.** With COc1ccccc1CNc1ccc(-c2nc(-c3ccccn3)no2)cc1[N+](=O)[O-] as the compound, how does the Potency [1] read?
**A.** inconclusive [inhibitor, full curve]

**Q.** For CN1c2ccccc2Oc2nnc(Cl)cc21, which Potency [1] is on record?
**A.** inactive

**Q.** Which Potency [1] does the source give for O=C1CN(C(=O)CSc2nnc(Nc3ccccc3)s2)c2ccccc2N1 here?
**A.** inconclusive [inhibitor, partial curve]

**Q.** With O=c1[nH]c2cc3c(cc2cc1C(c1nnnn1Cc1ccccc1)N1CCN2CCCC2C1)OCCO3 (centres undefined) as the compound, how does the Potency [1] read?
**A.** active: 18.4 µM

**Q.** Which Potency [1] does the source give for O=C(Cc1ccc(NC(=O)N2CCCCc3ccccc32)cc1)NCc1ccccc1Br here?
**A.** active: 23.1 µM

**Q.** Which Potency [1] does the source give for Cn1cc(C(=O)c2ccc(Cl)cc2Cl)cc1C(=O)N/N=C(\N)COc1ccccc1 here?
**A.** inconclusive [inhibitor, partial curve]

**Q.** Which Potency [1] does the source give for Cn1c(=O)c2c(nc(Sc3ncnn3CC(=O)NC3CCCCC3)n2C)n(C)c1=O here?
**A.** inactive

**Q.** With CN1CCN(c2ncc3nc(-c4cccc(C#N)c4)c(=O)n(C[C@H]4CCCO4)c3n2)CC1 as the compound, how does the Potency [1] read?
**A.** inactive

**Q.** Which Potency [1] does the source give for Cc1[nH]c2ccccc2c1/C=N\NC(=O)c1ccccc1Cl here?
**A.** inactive

**Q.** Which Potency [1] does the source give for COc1ccc(C(=O)NC(=S)N2CCCCC2)cc1 here?
**A.** inconclusive [inhibitor, single point]

**Q.** Which Potency [1] does the source give for COc1ccccc1C(O)(c1ccccc1)C(CN1CCOCC1)c1ccccc1 (centres undefined) here?
**A.** inconclusive [inhibitor, single point]

**Q.** With COc1cc(CNc2nc3ccccc3n2Cc2ccccc2)ccc1O as the compound, how does the Potency [1] read?
**A.** inconclusive [inhibitor, single point]

**Q.** Which Potency [1] does the source give for Cn1c(Cc2cccs2)nnc1SC/C=C/c1ccccc1 here?
**A.** inactive

**Q.** Which activity change, negative = growth inhibition [1] does the source give for Cc1cccc(NS(=O)(=O)c2ccc3[nH]c(=O)[nH]c3c2)c1C here?
**A.** inconclusive: -31.5% [inhibitor]

**Q.** And the activity change, negative = growth inhibition (at 46.2 µM (top of the series))?
**A.** inactive: -15%

**Q.** Which Potency [1] does the source give for CCOc1ccccc1C(=O)NC(C)c1ccc(-n2ccnc2)cc1 (centres undefined) here?
**A.** inactive

**Q.** With Nc1ccc(N)c(C(=O)O)c1 as the compound, how does the Potency [1] read?
**A.** inconclusive [inhibitor, single point]

**Q.** For Cc1cccc(NC(=O)CCCn2cc([N+](=O)[O-])cn2)n1, which Potency [1] is on record?
**A.** inactive

**Q.** Which Potency [1] does the source give for Cc1ccc(S(=O)(=O)N2CCCC(C(=O)NCc3ccco3)C2)cc1Cl (centres undefined) here?
**A.** inconclusive [inhibitor, single point]

**Q.** For COc1cc2c(cc1OC)CN(Cc1cc(=O)n3c(-c4ccccc4)csc3n1)CC2, which Potency [1] is on record?
**A.** inconclusive [inhibitor, single point]

**Q.** With COc1ccc(C(=O)C2CC2c2ccc3c(c2)OCO3)cc1 (centres undefined) as the compound, how does the Potency [1] read?
**A.** inactive

**Q.** With Cc1cc2c(c(=O)n1Cc1cccnc1)C(c1ccccc1)C(C#N)=C(N)O2 (centres undefined) as the compound, how does the Potency [1] read?
**A.** inconclusive [inhibitor, partial curve]

**Q.** For CCCCN1CC(=O)N2[C@H](c3ccc(Cl)cc3)[C@@H]3C(=O)N(CC)C(=O)[C@@H]3[C@]2(C)C1=O, which Potency [1] is on record?
**A.** inactive

**Q.** For CC1CCCN(CCCNC(=O)C2CCN(S(=O)(=O)N3CCC4(CC3)OCCO4)CC2)C1 (centres undefined), which Potency [1] is on record?
**A.** inactive

**Q.** Which Potency [1] does the source give for Cc1ccc(NC(=O)CN(C)S(=O)(=O)c2ccc3c(c2)n(C)c(=O)c(=O)n3C)c(C)c1 here?
**A.** inconclusive [inhibitor, single point]

**Q.** With O=C(CN1C(=O)/C(=C/c2ccccc2F)SC1=S)NC1C=CS(=O)(=O)C1 (centres undefined) as the compound, how does the Potency [1] read?
**A.** inactive

**Q.** Which Potency [1] does the source give for CC(=O)C1C(c2ccccc2)c2c(noc2C)CC1(C)O (centres undefined) here?
**A.** inactive

**Q.** Which Potency [1] does the source give for O=C(Nc1ccc(N2CCOCC2)c(Cl)c1)c1ccc2c(c1)OCCO2 here?
**A.** inconclusive [inhibitor, partial curve, poor fit]

**Q.** With CCOC(=O)c1c(NC(=O)C2C3CCC(O3)C2C(=O)O)sc(C)c1-c1ccc(F)cc1 (centres undefined) as the compound, how does the Potency [1] read?
**A.** inactive

**Q.** With CCC(C(=O)NCc1ccco1)N(C(=O)CNS(=O)(=O)c1ccc(C)cc1)c1ccccc1OC (centres undefined) as the compound, how does the Potency [1] read?
**A.** inconclusive [inhibitor, single point]

**Q.** For Cc1ccc(Cl)c(N/C=C/C(=O)c2ccccc2)c1, which Potency [1] is on record?
**A.** inactive

**Q.** With Cc1cccc(C(=O)NC2CCN(S(=O)(=O)c3ccc(F)cc3)CC2)c1 as the compound, how does the Potency [1] read?
**A.** inactive

**Q.** With CC(C)CCNC(=O)c1cccc(S(=O)(=O)N2CCc3ccccc32)c1 as the compound, how does the Potency [1] read?
**A.** inconclusive [inhibitor, single point]

**Q.** With Cc1c(NC(=O)CN2CCN(c3ccc(O)cc3)CC2)c(=O)n(-c2ccccc2)n1C as the compound, how does the Potency [1] read?
**A.** inconclusive [inhibitor, single point]

**Q.** Which Potency [1] does the source give for CNc1cncc(-c2ccc(NS(C)(=O)=O)cc2)n1 here?
**A.** active: 4.11 µM

**Q.** Which Potency [1] does the source give for COc1ccc(NC(=S)N/N=C2\CC(C)(C)Oc3ccc(OC)cc32)cc1 here?
**A.** active: 4.11 µM

**Q.** With CC(C)c1ccc(NC2CCCN(C(=O)CSc3nncn3C)C2)cc1 (centres undefined) as the compound, how does the Potency [1] read?
**A.** inactive

**Q.** Which Potency [1] does the source give for COc1ccc2nc(/N=C(\N)NC(=O)N3c4ccccc4Sc4ccccc43)nc(C)c2c1 here?
**A.** active: 16.4 µM

**Q.** Which Potency [1] does the source give for O=C(c1ccco1)N(Cc1ccc([N+](=O)[O-])cc1)c1ccc(Br)cc1 here?
**A.** inconclusive [inhibitor, partial curve]

**Q.** For CC(/C=N/n1c(-c2cc(C)[nH]n2)n[nH]c1=S)=C\c1ccccc1, which Potency [1] is on record?
**A.** inconclusive [inhibitor, single point]

**Q.** Which Potency [1] does the source give for CC(C)(C)C(=O)Nc1ccc(-c2nc3ccccc3s2)cc1 here?
**A.** inconclusive [inhibitor, partial curve]

**Q.** For O=C(O)[C@H](CC(=O)N1C[C@H]2CCCC[C@H]2C1)Cc1ccccc1, which Potency [1] is on record?
**A.** inactive

**Q.** For CC1(c2ccc(Cl)cc2)NC(=O)N(CC(=O)N2CCc3ccccc32)C1=O (centres undefined), which Potency [1] is on record?
**A.** inconclusive [inhibitor, partial curve]

**Q.** With CCN(c1ccccc1)S(=O)(=O)c1ccc2[nH]c(=O)[nH]c2c1 as the compound, how does the Potency [1] read?
**A.** inactive

**Q.** With CCCCCN(C(=O)CCC(=O)OCC(=O)c1ccc(CCC)cc1)c1c(N)n(CCCC)c(=O)[nH]c1=O as the compound, how does the Potency [1] read?
**A.** inconclusive [inhibitor, single point]

**Q.** Which Potency [1] does the source give for C=CCOc1ccc(Cl)cc1CNC1CCCC1 here?
**A.** inconclusive [inhibitor, partial curve, poor fit]

**Q.** For COc1ccc(C(=O)/C(C#N)=N/Nc2ccc([N+](=O)[O-])cc2)cc1, which Potency [1] is on record?
**A.** active: 0.517 µM

**Q.** Which Potency [1] does the source give for O=C(Nc1cccc(C(=O)N2CCOCC2)c1)c1ccccc1Cl here?
**A.** inactive

**Q.** For Cc1ccc(Cn2c(SCC(=O)N/N=C/c3ccccc3OCC(=O)O)nc3ccccc32)cc1, which Potency [1] is on record?
**A.** inactive

**Q.** Which Potency [1] does the source give for CCOc1ccc(-c2c(C)nn3c(C)c(C(=O)NCc4cccc(OC)c4)cnc23)cc1OCC here?
**A.** inconclusive [inhibitor, partial curve]

**Q.** For CN(C)c1ccc(C(=O)Nc2cccc(S(=O)(=O)N3CCCC3)c2)cc1, which Potency [1] is on record?
**A.** inconclusive [inhibitor, single point]

**Q.** For COCCn1c(=O)c(C)nc2cncnc21, which Potency [1] is on record?
**A.** inactive

**Q.** Which Potency [1] does the source give for Cc1nc(CN(C)C(=O)CC2C(=O)NCCN2Cc2ccc(-c3ccccc3)cc2)cs1 (centres undefined) here?
**A.** inconclusive [inhibitor, single point]

**Q.** Which Potency [1] does the source give for Cc1ccc(NC(=O)c2ccc(S(=O)(=O)N3CC(C)CC(C)C3)cc2)cc1S(=O)(=O)N1CCOCC1 (centres undefined) here?
**A.** active: 7.31 µM

**Q.** For COc1ccccc1OCc1nc2ccccc2[nH]1, which Potency [1] is on record?
**A.** inactive

**Q.** With CCNc1nc2c(c(=O)n(C)c(=O)n2C)n1Cc1ccc(Cl)cc1 as the compound, how does the Potency [1] read?
**A.** active: 6.51 µM

**Q.** Which Potency [1] does the source give for COc1ccc(Cn2nnnc2C(c2ccccc2Cl)N2CCN(C3CCCC3)CC2)cc1 (centres undefined) here?
**A.** inconclusive [inhibitor, partial curve]

**Q.** Which Potency [1] does the source give for CCOc1ccccc1N1CCN(S(=O)(=O)c2cc(C)ccc2OC)CC1 here?
**A.** inconclusive [inhibitor, partial curve]

**Q.** With COc1ccc(-c2csc3ncnc(N4CCN(S(=O)(=O)c5cccc(C(F)(F)F)c5)CC4)c23)cc1 as the compound, how does the Potency [1] read?
**A.** inconclusive [inhibitor, single point]

**Q.** With COC(=O)/C=C\C(C#N)(C#N)N=Cc1ccc(OC)cc1 as the compound, how does the Potency [1] read?
**A.** active: 0.651 µM

**Q.** With CCc1cnc2c(c1SCc1c(F)cccc1Cl)c(=O)n(C)c(=O)n2C as the compound, how does the Potency [1] read?
**A.** active: 25.9 µM

**Q.** With CCOc1cc(C(=O)N(Cc2nc(-c3ccc(C)cc3)no2)C(C)C)cc(OCC)c1OCC as the compound, how does the Potency [1] read?
**A.** inconclusive [inhibitor, single point]

**Q.** For Cc1ccccc1N1CCN(C2CCCN(C(=O)c3csc(C(C)C)n3)C2)CC1 (centres undefined), which Potency [1] is on record?
**A.** inconclusive [inhibitor, single point]

**Q.** Which activity change, negative = growth inhibition [1] does the source give for O=C(Nc1ccccc1)Nc1ccccc1C(=O)NCc1ccccc1 here?
**A.** inconclusive: -34.5% [inhibitor]

**Q.** For COc1ccccc1CN1CC(C(=O)N(C)CCc2nc3ccc(F)cc3[nH]2)CCC1=O (centres undefined), which Potency [1] is on record?
**A.** inactive

**Q.** With O=C(OCC(=O)N1CCN(S(=O)(=O)c2ccc(Cl)cc2)CC1)c1cccc(OC(F)F)c1 as the compound, how does the activity change, negative = growth inhibition [1] read?
**A.** inconclusive: -35.3% [inhibitor]

**Q.** For NC(=NCCc1ccccc1)NS(=O)(=O)c1ccccc1F, which Potency [1] is on record?
**A.** inactive

**Q.** Which Potency [1] does the source give for CC(=O)c1cccc(NC(=O)c2ccc(S(=O)(=O)N3CCCCC3)cc2)c1 here?
**A.** active: 18.4 µM

**Q.** For COCCNC(=O)CN1C(=O)/C(=C/c2ccccc2)Oc2ccc(C(C)(C)C)cc21, which Potency [1] is on record?
**A.** inconclusive [inhibitor, single point]

**Q.** For CCc1nc2c(OCc3cc(Cl)cc(Cl)c3)cccn2c1N(C=O)Cc1ccc(OC)cc1, which Potency [1] is on record?
**A.** inconclusive [inhibitor, single point]

**Q.** With Cc1ccc(C)c(N2CCN(C(=O)c3ccc(N4CCOCC4)c([N+](=O)[O-])c3)CC2)c1 as the compound, how does the Potency [1] read?
**A.** active: 16.4 µM
